Paper PMC12820563
This is one part of the list. The list includes weakly bound sequences.

These sequences were tested against T1, MBP-FoxP3dN (UniProt Q99JB6) (assay: PD-seq (MBP pull-down with sequencing)). Conditions: 20 mM Tris-HCl pH 7.5, 100 mM NaCl, 1.5 mM MgCl2, 0.4 uM protein, 0.1 uM dsDNA library, 30 min, room temperature, amylose pull-down; high values mean tight binding; double strand, one strand shown.
T1 sequence: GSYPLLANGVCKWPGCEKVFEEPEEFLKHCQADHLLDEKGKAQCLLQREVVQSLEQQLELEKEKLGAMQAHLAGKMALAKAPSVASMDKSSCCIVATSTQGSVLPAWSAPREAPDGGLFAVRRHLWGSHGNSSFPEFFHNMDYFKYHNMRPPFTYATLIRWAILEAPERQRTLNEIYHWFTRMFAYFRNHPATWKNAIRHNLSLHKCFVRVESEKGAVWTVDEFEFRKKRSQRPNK

Row | Sequence | binding signal (RPM ratio (pull-down/input))
1 | GATGATTGTTCTCCCAGCTGATGAATTTCCACTTTCGAGTAAACAAATTTTCCTAATCTTTCTGTTCAAGCGCCATCTAC | 0.28
2 | GATGATTGTTCTCCCAGCTGATGAATTAAATATGTCGAGTAAACAAATTTTCCTAATCTTTCTGTTCAAGCGCCATCTAC | 0.778
3 | GATGATTGTTCTCCCAGCTGATGAATTCCCTGTGTCGAGTAAACAAATTTTCCTAATCTTTCTGTTCAAGCGCCATCTAC | 0.347
4 | GATGATTGTTCTCCCAGCTGATGAATTGTGTCCTTCGAGTAAACAAATTTTCCTAATCTTTCTGTTCAAGCGCCATCTAC | 1.89
5 | GATGATTGTTCTCCCAGCTGATGAATTTACGATCTCGAGTAAACAAATTTTCCTAATCTTTCTGTTCAAGCGCCATCTAC | 0.505
6 | GATGATTGTTCTCCCAGCTGATGAATTTTAGGAATCGAGTAAACAAATTTTCCTAATCTTTCTGTTCAAGCGCCATCTAC | 0.177
7 | GATGATTGTTCTCCCAGCTGATGAATTGTAACACTCGAGTAAACAAATTTTCCTAATCTTTCTGTTCAAGCGCCATCTAC | 1.07
8 | GATGATTGTTCTCCCAGCTGATGAATTGGGGAGCTCGAGTAAACAAATTTTCCTAATCTTTCTGTTCAAGCGCCATCTAC | 0.252
9 | GATGATTGTTCTCCCAGCTGATGAATTTAAAATGTCGAGTAAACAAATTTTCCTAATCTTTCTGTTCAAGCGCCATCTAC | 0.242
10 | GATGATTGTTCTCCCAGCTGATGAATTATACATTTCGAGTAAACAAATTTTCCTAATCTTTCTGTTCAAGCGCCATCTAC | 0.752
11 | GATGATTGTTCTCCCAGCTGATGAATTGGAGCTCTCGAGTAAACAAATTTTCCTAATCTTTCTGTTCAAGCGCCATCTAC | 0.276
12 | GATGATTGTTCTCCCAGCTGATGAATTGCAGGCTTCGAGTAAACAAATTTTCCTAATCTTTCTGTTCAAGCGCCATCTAC | 0.738
13 | GATGATTGTTCTCCCAGCTGATGAATTAAAGGAATCGAGTAAACAAATTTTCCTAATCTTTCTGTTCAAGCGCCATCTAC | 0.217
14 | GATGATTGTTCTCCCAGCTGATGAATTGAGCACCTCGAGTAAACAAATTTTCCTAATCTTTCTGTTCAAGCGCCATCTAC | 0.853
15 | GATGATTGTTCTCCCAGCTGATGAATTGACCTCTTCGAGTAAACAAATTTTCCTAATCTTTCTGTTCAAGCGCCATCTAC | 0.288
16 | GATGATTGTTCTCCCAGCTGATGAATTCAGTTCCTCGAGTAAACAAATTTTCCTAATCTTTCTGTTCAAGCGCCATCTAC | 0.923

Row | Sequence | binding signal (RPM ratio (pull-down/input))
17 | GATGATTGTTCTCCCAGCTGATGAATTCGGTGACTCGAGTAAACAAATTTTCCTAATCTTTCTGTTCAAGCGCCATCTAC | 0.958
18 | GATGATTGTTCTCCCAGCTGATGAATTAAGAATCTCGAGTAAACAAATTTTCCTAATCTTTCTGTTCAAGCGCCATCTAC | 1.59
19 | GATGATTGTTCTCCCAGCTGATGAATTGGCCTTTTCGAGTAAACAAATTTTCCTAATCTTTCTGTTCAAGCGCCATCTAC | 1.07
20 | GATGATTGTTCTCCCAGCTGATGAATTAGCCAAATCGAGTAAACAAATTTTCCTAATCTTTCTGTTCAAGCGCCATCTAC | 0.246
21 | GATGATTGTTCTCCCAGCTGATGAATTACATCGGTCGAGTAAACAAATTTTCCTAATCTTTCTGTTCAAGCGCCATCTAC | 0.432
22 | GATGATTGTTCTCCCAGCTGATGAATTGGCCGGGTCGAGTAAACAAATTTTCCTAATCTTTCTGTTCAAGCGCCATCTAC | 0.185
23 | GATGATTGTTCTCCCAGCTGATGAATTGACCTTCTCGAGTAAACAAATTTTCCTAATCTTTCTGTTCAAGCGCCATCTAC | 0.306
24 | GATGATTGTTCTCCCAGCTGATGAATTGATGTTGTCGAGTAAACAAATTTTCCTAATCTTTCTGTTCAAGCGCCATCTAC | 2.55
25 | GATGATTGTTCTCCCAGCTGATGAATTATGCGGATCGAGTAAACAAATTTTCCTAATCTTTCTGTTCAAGCGCCATCTAC | 0.753
26 | GATGATTGTTCTCCCAGCTGATGAATTATACGAGTCGAGTAAACAAATTTTCCTAATCTTTCTGTTCAAGCGCCATCTAC | 0.404
27 | GATGATTGTTCTCCCAGCTGATGAATTTGGTGATTCGAGTAAACAAATTTTCCTAATCTTTCTGTTCAAGCGCCATCTAC | 1.66
28 | GATGATTGTTCTCCCAGCTGATGAATTTACCGGATCGAGTAAACAAATTTTCCTAATCTTTCTGTTCAAGCGCCATCTAC | 0.251
29 | GATGATTGTTCTCCCAGCTGATGAATTGCCACCGTCGAGTAAACAAATTTTCCTAATCTTTCTGTTCAAGCGCCATCTAC | 0.928
30 | GATGATTGTTCTCCCAGCTGATGAATTAGTTGGCTCGAGTAAACAAATTTTCCTAATCTTTCTGTTCAAGCGCCATCTAC | 3.39
31 | GATGATTGTTCTCCCAGCTGATGAATTCTGGGCCTCGAGTAAACAAATTTTCCTAATCTTTCTGTTCAAGCGCCATCTAC | 0.36
32 | GATGATTGTTCTCCCAGCTGATGAATTGCGATGCTCGAGTAAACAAATTTTCCTAATCTTTCTGTTCAAGCGCCATCTAC | 1.38
